Measured values published in article PMC12806337.
Read-outs that look alike come from different tables or passages of the source. Results are given in words; binding and its absence hold for the method and conditions named. Binding seen in cells or lysates may run through a third protein. Some binding calls cover weakened binding; strength is not graded here.

By UniProt entry, the sequences of proteins in these tests, tags left out. Where a name states a change or a piece, a line headed by the entry shows the natural chain unless it says otherwise. Chains listed by the source or under a name are the forms on record and can include a tag or linker. Residues count along the entry.
UniProt Q93034: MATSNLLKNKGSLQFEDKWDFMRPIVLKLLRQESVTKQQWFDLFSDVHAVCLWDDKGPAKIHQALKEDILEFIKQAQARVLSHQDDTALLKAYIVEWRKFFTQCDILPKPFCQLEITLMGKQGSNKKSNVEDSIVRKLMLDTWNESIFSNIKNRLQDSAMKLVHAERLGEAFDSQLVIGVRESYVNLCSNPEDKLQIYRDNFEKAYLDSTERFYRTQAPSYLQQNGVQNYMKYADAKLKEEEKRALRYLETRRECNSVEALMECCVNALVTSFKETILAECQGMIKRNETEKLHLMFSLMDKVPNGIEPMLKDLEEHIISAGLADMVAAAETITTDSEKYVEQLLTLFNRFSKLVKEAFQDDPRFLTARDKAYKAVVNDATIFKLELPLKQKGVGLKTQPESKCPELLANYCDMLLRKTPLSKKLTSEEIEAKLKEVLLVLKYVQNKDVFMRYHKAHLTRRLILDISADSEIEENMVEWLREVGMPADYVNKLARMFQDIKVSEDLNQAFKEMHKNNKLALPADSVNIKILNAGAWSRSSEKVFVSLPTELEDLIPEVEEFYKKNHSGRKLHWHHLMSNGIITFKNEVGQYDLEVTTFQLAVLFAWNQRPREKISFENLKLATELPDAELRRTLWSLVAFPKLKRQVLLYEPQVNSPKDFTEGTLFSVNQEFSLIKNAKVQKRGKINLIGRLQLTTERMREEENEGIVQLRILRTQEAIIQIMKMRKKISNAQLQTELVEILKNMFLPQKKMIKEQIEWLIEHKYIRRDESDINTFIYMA
FLAG-CUL5-N (aa 1-400): residues 1-400 of Q93034
FLAG-CUL5-C (aa 385-780): residues 385-780 of Q93034
FLAG-CUL5-ΔSAG (deletion of aa 565-582) (Q93034, form named): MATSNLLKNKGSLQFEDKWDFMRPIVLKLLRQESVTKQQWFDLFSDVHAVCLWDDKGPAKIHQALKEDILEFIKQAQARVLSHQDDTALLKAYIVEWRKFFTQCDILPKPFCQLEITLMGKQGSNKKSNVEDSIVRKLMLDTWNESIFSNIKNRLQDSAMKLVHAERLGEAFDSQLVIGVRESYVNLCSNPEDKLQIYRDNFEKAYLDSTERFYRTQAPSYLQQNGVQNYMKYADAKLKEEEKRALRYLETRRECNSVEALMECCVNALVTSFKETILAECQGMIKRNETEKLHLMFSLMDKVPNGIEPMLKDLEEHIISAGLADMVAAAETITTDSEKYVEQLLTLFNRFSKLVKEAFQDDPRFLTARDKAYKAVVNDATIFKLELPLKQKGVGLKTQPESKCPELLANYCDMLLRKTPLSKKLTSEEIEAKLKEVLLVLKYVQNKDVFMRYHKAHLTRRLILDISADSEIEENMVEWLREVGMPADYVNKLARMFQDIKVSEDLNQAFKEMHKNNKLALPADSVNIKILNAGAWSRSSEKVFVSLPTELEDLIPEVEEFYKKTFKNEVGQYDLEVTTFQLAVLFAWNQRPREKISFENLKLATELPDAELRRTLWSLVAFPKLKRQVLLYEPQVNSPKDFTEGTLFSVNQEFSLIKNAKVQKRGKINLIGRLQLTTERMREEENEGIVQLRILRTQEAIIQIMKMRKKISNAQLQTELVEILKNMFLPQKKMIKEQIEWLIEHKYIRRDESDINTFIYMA
UniProt Q9UBF6: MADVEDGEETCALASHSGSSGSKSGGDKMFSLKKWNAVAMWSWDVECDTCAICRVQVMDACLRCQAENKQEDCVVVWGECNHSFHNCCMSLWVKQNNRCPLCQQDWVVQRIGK
UniProt Q9NYG5: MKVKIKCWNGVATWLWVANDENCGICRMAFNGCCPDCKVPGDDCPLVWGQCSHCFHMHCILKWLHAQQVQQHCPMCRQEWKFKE
UniProt Q96J02: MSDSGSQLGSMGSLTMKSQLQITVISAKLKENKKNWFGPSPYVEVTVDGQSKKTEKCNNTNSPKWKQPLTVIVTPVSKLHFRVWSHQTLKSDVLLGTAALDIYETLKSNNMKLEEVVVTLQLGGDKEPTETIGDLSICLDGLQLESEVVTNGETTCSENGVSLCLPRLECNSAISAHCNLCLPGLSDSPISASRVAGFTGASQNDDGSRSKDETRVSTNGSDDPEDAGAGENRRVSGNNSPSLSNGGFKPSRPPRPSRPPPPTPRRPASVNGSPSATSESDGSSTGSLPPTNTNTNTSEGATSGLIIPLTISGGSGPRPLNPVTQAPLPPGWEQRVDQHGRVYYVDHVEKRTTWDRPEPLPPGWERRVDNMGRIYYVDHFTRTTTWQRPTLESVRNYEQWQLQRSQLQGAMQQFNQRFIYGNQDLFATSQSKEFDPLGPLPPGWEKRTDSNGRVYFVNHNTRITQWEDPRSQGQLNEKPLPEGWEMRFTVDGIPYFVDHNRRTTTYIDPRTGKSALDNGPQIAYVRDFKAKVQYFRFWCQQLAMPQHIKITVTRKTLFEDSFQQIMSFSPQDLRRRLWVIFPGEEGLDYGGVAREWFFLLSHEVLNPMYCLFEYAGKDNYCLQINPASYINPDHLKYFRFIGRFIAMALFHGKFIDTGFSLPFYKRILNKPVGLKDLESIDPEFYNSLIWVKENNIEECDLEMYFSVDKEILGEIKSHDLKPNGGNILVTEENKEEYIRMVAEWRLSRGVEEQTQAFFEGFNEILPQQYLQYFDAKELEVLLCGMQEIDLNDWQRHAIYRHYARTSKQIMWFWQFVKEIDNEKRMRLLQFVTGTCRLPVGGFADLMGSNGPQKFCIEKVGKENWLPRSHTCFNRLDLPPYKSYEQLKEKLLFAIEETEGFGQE
UniProt Q86VP6: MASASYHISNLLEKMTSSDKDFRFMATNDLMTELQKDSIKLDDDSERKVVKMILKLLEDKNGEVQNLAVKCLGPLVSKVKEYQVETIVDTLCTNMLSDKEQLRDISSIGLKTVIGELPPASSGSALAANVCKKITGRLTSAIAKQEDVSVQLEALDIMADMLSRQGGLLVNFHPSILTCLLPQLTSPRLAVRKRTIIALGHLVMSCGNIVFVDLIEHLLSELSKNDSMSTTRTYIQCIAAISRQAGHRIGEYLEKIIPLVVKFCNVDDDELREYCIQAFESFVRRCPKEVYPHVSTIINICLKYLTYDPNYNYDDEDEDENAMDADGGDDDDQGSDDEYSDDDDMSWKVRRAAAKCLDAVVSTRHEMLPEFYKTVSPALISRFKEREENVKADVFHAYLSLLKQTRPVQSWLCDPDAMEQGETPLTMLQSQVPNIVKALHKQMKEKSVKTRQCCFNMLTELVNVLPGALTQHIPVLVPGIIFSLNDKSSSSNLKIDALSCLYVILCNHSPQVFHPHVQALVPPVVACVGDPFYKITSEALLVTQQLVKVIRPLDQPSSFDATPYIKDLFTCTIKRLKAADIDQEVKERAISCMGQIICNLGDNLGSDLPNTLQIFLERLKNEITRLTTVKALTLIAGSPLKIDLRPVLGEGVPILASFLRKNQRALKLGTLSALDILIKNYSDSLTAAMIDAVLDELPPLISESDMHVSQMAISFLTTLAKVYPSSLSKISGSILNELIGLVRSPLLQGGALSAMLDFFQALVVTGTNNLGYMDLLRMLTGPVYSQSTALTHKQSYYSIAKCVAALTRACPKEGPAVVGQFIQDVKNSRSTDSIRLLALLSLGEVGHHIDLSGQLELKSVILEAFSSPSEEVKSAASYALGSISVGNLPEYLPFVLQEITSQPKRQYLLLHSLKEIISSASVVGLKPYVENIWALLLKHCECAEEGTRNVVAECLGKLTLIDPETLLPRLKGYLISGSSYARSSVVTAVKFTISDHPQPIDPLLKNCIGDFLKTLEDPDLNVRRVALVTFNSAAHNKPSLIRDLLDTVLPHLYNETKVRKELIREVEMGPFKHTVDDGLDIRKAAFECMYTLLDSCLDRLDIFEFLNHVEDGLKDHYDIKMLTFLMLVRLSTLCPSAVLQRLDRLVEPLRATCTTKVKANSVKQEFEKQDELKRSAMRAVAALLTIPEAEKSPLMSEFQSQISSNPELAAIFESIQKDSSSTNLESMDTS
UniProt Q92905: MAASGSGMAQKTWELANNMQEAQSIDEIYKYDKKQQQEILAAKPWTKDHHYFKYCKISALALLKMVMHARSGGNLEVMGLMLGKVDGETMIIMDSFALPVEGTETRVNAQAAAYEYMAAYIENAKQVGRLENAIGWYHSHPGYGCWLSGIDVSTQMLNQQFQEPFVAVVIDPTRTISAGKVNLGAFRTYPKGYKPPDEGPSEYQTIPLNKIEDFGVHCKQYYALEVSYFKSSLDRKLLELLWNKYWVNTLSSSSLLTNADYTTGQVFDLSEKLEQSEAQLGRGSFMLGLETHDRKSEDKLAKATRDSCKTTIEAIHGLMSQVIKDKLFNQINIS

Legend:
FLAG-CUL5 [1] = biological target: FLAG-CUL5 (UniProt Q93034); experiment: co-IP; FLAG antibody-conjugated beads, 3 h, lysate of MIA PaCa-2 cells with exogenous FLAG-CUL5; endogenous prey detected by immunoblot
FLAG-CUL5-C (aa 385-780) = FLAG-CUL5-C (aa 385-780) (UniProt Q93034); experiment: co-IP; FLAG antibody-conjugated beads, 3 h, lysates of transfected HEK293 cells (50 mM Tris pH 7.5, 0.15 M NaCl, 1% NP-40, 0.1% SDS, 0.5% sodium deoxycholate, 1 mM EDTA, 1 mM DTT); endogenous prey detected by immunoblot; in some panels 1 µM MLN4924 for 12 h, siRNA to APC11, or co-transfected MYC-CUL5
FLAG-CUL5-N (aa 1-400) = FLAG-CUL5-N (aa 1-400) (UniProt Q93034); experiment: as above
FLAG-CUL5 [2] = biological target: FLAG-CUL5 (UniProt Q93034); experiment: as above
[3] = biological target: FLAG-CUL5-ΔSAG (deletion of aa 565-582) (UniProt Q93034); experiment: as above
[4] = biological target: endogenous CUL5 (human (endogenous in HEK293, MIA PaCa-2, A549, Hep3B, PLC/PRF/5)) (UniProt Q93034); experiment: co-IP; endogenous IP with anti-CUL5 antibody (normal mouse IgG as control) and protein G sepharose from lysates of MIA PaCa-2, A549, Hep3B and PLC/PRF/5 cells; in some panels siRNA to APC11 or SAG for 72 h
FLAG-SAG = FLAG-SAG (UniProt Q9UBF6); experiment: co-IP; FLAG antibody-conjugated beads, 3 h, lysates of transfected HEK293 cells (50 mM Tris pH 7.5, 0.15 M NaCl, 1% NP-40, 0.1% SDS, 0.5% sodium deoxycholate, 1 mM EDTA, 1 mM DTT); endogenous prey detected by immunoblot; in some panels 1 µM MLN4924 for 12 h, siRNA to APC11, or co-transfected MYC-CUL5
FLAG-APC11 W8A = FLAG-APC11 W8A (UniProt Q9NYG5); experiment: as above
FLAG-APC11 W14A = FLAG-APC11 W14A (UniProt Q9NYG5); experiment: as above
FLAG-APC11 = FLAG-APC11 (UniProt Q9NYG5); experiment: as above
FLAG-APC11 V3A = FLAG-APC11 V3A (UniProt Q9NYG5); experiment: as above
FLAG-APC11 I5A = FLAG-APC11 I5A (UniProt Q9NYG5); experiment: as above
[5] = biological target: endogenous ITCH (human (endogenous in HEK293, Hep3B, PLC/PRF/5, HeLa)) (UniProt Q96J02); experiment: co-IP; endogenous IP with anti-ITCH antibody (normal rabbit IgG as control) and protein G sepharose from lysates of Hep3B and PLC/PRF/5 cells
FLAG-CUL5 [6] = biological target: FLAG-CUL5 (UniProt Q93034); experiment: co-IP; FLAG antibody-conjugated beads, 3 h, lysates of transfected HEK293 cells (50 mM Tris pH 7.5, 0.15 M NaCl, 1% NP-40, 0.1% SDS, 0.5% sodium deoxycholate, 1 mM EDTA, 1 mM DTT); endogenous prey detected by immunoblot; in some panels 1 µM MLN4924 for 12 h, siRNA to APC11, or co-transfected MYC-CUL5; remark: listed apart in the source
[7] = biological target: endogenous CUL5 (human (endogenous in HEK293, MIA PaCa-2, A549, Hep3B, PLC/PRF/5)) (UniProt Q93034); experiment: co-IP; endogenous IP with anti-CUL5 antibody (normal mouse IgG as control) and protein G sepharose from lysates of MIA PaCa-2, A549, Hep3B and PLC/PRF/5 cells; in some panels siRNA to APC11 or SAG for 72 h; remark: listed apart in the source

For “endogenous APC11 (from UniProt Q9NYG5 1-84)”, the binding (FLAG-CUL5 [1]) was “binds”, the binding (FLAG-CUL5-C (aa 385-780)) was “no binding” and the binding (FLAG-CUL5-N (aa 1-400)) was “no binding”. For the same molecule, the binding (FLAG-CUL5 [2]) was “binds”, the binding [3] was “no binding” and the binding [4] was “binds”.

For “endogenous CAND1 (from UniProt Q86VP6 1-1230)”, the binding (FLAG-CUL5 [2]) was “binds”.

“endogenous COPS5 (from UniProt Q92905 1-334)” was tested, and the binding (FLAG-CUL5 [2]) was “binds”.

For “endogenous CUL5 (from UniProt Q93034 1-780)”, the binding (FLAG-SAG) was “binds”, the binding (FLAG-APC11 W8A) was “binds weakly” and the binding (FLAG-APC11 W14A) was “binds weakly”. For the same molecule, the binding (FLAG-APC11) was “binds”, the binding (FLAG-APC11 V3A) was “binds weakly” and the binding (FLAG-APC11 I5A) was “binds weakly”. The binding [5] was “binds”.

With “endogenous SAG (from UniProt Q9UBF6 1-113)” the binding (FLAG-CUL5-C (aa 385-780)) was “binds”, the binding (FLAG-CUL5 [2]) was “binds” and the binding [4] was “binds”.

“neddylated CUL5 (from UniProt Q93034 1-780; Q15843 1-76)” was tested, and the binding (FLAG-SAG) was “binds”.

B1: endogenous UBE2F (enzyme, UniProt Q969M7 1-185)
chain: MLTLASKLKRDDGLKGSRTAATASDSTRRVSVRDKLLVKEVAELEANLPCTCKVHFPDPNKLHCFQLTVTPDEGYYQGGKFQFETEVPDAYNMVPPKVKCLTKIWHPNITETGEICLSLLREHSIDGTGWAPTRTLKDVVWGLNSLFTDLLNFDDPLNIEAAEHHLRDKEDFRNKVDDYIKRYAR
B1 was tested, and the binding (FLAG-CUL5 [6]) was “binds” and the binding [7] was “binds”.
